Experimental data taken from paper PMC4336329 (PLoS ONE, 2015).
Screen size: about 310,000 compounds; about 14,000 (4.5%) showed an effect of 50% or more. The effect is printed as a negative number. The list shows a part of the results.

biological target: human ether-à-go-go-related gene (hERG) potassium channel (human, UniProt Q12809); assay: primary screen, population patch clamp on CHO cells stably expressing hERG
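Also: peak tail current of the secondary pulse compared with the same well before compound.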

Chain of human ether-à-go-go-related gene (hERG) potassium channel (Q12809 whole entry, looked up): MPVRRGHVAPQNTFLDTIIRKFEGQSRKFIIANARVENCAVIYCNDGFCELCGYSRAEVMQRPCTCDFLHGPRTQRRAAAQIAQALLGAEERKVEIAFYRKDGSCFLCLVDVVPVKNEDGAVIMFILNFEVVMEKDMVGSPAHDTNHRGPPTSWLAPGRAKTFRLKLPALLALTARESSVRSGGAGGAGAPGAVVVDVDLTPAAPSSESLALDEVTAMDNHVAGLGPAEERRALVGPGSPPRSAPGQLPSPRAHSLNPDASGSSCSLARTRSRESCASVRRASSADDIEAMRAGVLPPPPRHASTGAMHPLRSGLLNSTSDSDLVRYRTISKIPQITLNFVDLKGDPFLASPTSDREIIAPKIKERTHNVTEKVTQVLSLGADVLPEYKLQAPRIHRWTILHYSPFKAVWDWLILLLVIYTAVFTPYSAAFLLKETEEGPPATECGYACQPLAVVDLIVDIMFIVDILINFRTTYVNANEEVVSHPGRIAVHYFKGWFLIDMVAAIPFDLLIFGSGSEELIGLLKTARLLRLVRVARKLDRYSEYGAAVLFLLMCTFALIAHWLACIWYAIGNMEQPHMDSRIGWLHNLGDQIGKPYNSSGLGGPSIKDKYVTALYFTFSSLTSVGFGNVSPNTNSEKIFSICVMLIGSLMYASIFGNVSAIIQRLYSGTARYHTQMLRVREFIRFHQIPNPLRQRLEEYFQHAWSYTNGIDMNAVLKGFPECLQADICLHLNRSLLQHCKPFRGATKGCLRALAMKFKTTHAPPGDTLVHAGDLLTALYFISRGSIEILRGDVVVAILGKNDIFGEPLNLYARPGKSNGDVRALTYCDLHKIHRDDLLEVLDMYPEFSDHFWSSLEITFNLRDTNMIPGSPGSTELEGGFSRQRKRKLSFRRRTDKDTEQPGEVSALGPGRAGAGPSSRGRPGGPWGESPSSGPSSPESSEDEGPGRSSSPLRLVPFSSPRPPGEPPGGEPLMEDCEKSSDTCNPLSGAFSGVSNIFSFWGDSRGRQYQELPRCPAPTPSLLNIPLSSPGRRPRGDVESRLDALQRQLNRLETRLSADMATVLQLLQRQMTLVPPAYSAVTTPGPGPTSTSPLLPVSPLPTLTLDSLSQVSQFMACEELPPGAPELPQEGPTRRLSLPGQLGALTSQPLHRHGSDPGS

In order of falling “hERG current change (%, negative = inhibition) at 10uM” value:
1. N#C/C(=C\c1cn[nH]c1-c1ccccc1Br)C(=O)O  46.4%
2. CCCCNC(=S)N1CCN(C(c2ccccc2)c2ccccc2)CC1  20.9%
3. Cc1ccc(C(=O)NCC(=O)OCC(=O)N(CC(C)C)c2c(N)n(Cc3ccccc3)c(=O)[nH]c2=O)cc1C  20.3%
4. O=C(CCCN1C(=O)c2cccc3cccc(c23)C1=O)NCc1cccs1  19.9%
5. O=C(O)C1C2C=CC(O2)C1C(=O)NCCc1cccc(Cl)c1 (stereo not shown)  19.6%
6. Cc1ccc(CC(=O)NCc2ccc(Cl)cc2)cc1  19.4%
7. O=C(O)CCCC(=O)Nc1ccc(Oc2cccc(C(F)(F)F)c2)nc1  19.4%
8. Cc1c(-c2nnc(-c3ccc(C(F)(F)F)cc3)o2)cnn1-c1ccccc1  18.8%
9. O=C(Cc1cccs1)N/N=C/C(Cl)=C/c1ccccc1  18.5%
10. CC(=O)[O-].Cc1cc(C)c(S(=O)(=O)n2cc(C(C)C([NH3+])C(=O)O)c3ccccc32)c(C)c1 (stereo not shown)  18%
11. COc1ccc(NC(=O)N2CCCCCC2)c(OC)c1  17%
12. O=C(COC(=O)/C=C/c1ccc(Cl)cc1)Nc1ccc2[nH]c(=O)[nH]c2c1  16.3%
13. O=C(CSCc1ccccc1)Nc1ccc(S(=O)(=O)Nc2ncccn2)cc1  15.7%
14. COc1ccc(Cc2nc3ccc(C(=O)N(C)CCn4ccnc4)cc3o2)cc1OC  15.5%
15. COc1cc(C(=O)NC(=S)Nc2csc(-c3ccc(F)cc3)n2)cc(OC)c1OC  15.1%
16. COCCn1c(SCC(=O)NN2C(=O)NC(C)(c3ccccc3)C2=O)nnc1-c1ccncc1 (stereo not shown)  13.8%
17. COc1ccc(C(=O)NC2CCN(S(=O)(=O)c3ccc(F)cc3)CC2)cc1  13.6%
18. COC(=O)c1ccccc1NC(=O)CSc1nc2ccccc2c(=O)[nH]1  13.6%
19. Cc1ccc(CNC(=O)C2COc3ccccc3O2)cc1 (stereo not shown)  13.1%
20. CCOC(=O)CSc1ccccn1  13.1%
21. CC(=O)Nc1ccc2c(c1)nc1n2CCN(C(C)c2ccccc2)C1 (stereo not shown)  12.1%
22. CCC1CCCCN1CCCNC(=O)Cn1c(=O)c2cccn2c2cccnc21 (stereo not shown)  12.1%
23. COc1ccc(OC)c(C2C(C(=O)c3ccc(C)o3)=C(O)C(=O)N2c2cc(C)on2)c1 (stereo not shown)  10.2%
24. COC(=O)c1ccccc1NC(=S)N(C)C  9.9%
25. CC(=O)c1ccc(OCCn2c(SCC(=O)O)nc3ccccc32)cc1  9.04%
26. COc1ccc(C(=O)/C=C/c2ccc(F)cc2)c(OC(=O)c2ccc([N+](=O)[O-])cc2)c1  8.95%
27. Cc1ccc(OCc2nnc(SCC(=O)Nc3ncc(C)s3)o2)cc1  8.46%
28. CCc1nnc(NC(=O)c2cc(-c3ccccn3)nc3ccc(Br)cc23)s1  8.08%
29. CCN1CCN(Cc2nc3c(c(=O)n(C)c(=O)n3C)n2CC(=O)c2ccccc2)CC1  7.92%
30. O=C(Cc1cccs1)NCC1CCCO1 (stereo not shown)  7.84%
31. O=C1C2C3C=CC(CC3)C2C(=O)N1c1ccccc1 (stereo not shown)  7.75%
32. O=C(CSc1nc2ccccc2[nH]1)N1c2ccccc2Sc2ccccc21  7.74%
33. COC(=O)CC1=Nc2ccccc2NC(=O)C1  7.33%
34. Cc1cccnc1NC(=O)c1c(O)c2cccc3c2n(c1=O)CCC3  7.16%
35. Cc1cc(NC(=O)c2cc(Cl)ccc2Cl)no1  6.41%
36. N#C/C(=C\c1ccccc1)C(=O)Nc1cccnc1  6.36%
37. O=C(CNC(=S)N(Cc1ccccc1F)C1CCCCC1)NCCCN1CCOCC1  6.08%
38. COc1ccc(N(CC(=O)N2CCN(C)CC2)S(C)(=O)=O)cc1OC  4.86%
39. Cc1cccc(C(=O)N2CCCC(N3CCN(c4ccccc4F)CC3)C2)n1 (stereo not shown)  4.76%
40. CC(=O)N1c2ccccc2Oc2cc3ccccc3cc21  4.69%
41. Cn1c(=O)oc2cc(S(=O)(=O)Nc3ccc4c(c3)OCCO4)ccc21  4.22%
42. CC1C/C(=N/NC(=O)c2cccs2)CC(C)(C)C1 (stereo not shown)  3.84%
43. CCN1CCN(CCNC(=O)CSCc2nc(-c3ccc(OC)c(OC)c3)oc2C)CC1  3.82%
44. C/C(=N\NC(=O)c1ccc(OC2CCCC2)cc1)c1ccc(C)s1  3.48%
45. Cc1ccc(Nc2c(-c3ccco3)nc3ccccn23)cc1  2.78%
46. CC(C)C(OC(=O)C1CCCO1)C(=O)NC1CCCC1 (stereo not shown)  2.54%
47. Cc1ccc(C(=O)NC2CCN(C(=O)Nc3ccc(F)cc3)CC2)cc1  1.24%
48. COCOc1cc(O)c(C(=O)/C=C/c2ccc(OCOC)c(OCOC)c2)c(OCOC)c1  1.09%
49. Cn1ccnc1Sc1nc2c(c(=O)n(C)c(=O)n2C)n1C  1.07%
50. O=C(NCC(c1ccco1)N1CCN(c2ccccc2F)CC1)C(=O)NC1CC1 (stereo not shown)  0.336%
51. COc1cccc(-c2cc(C(=O)NCC3CCCO3)c3ccccc3n2)c1 (stereo not shown)  -0.277%
52. CCN(CC)S(=O)(=O)c1ccc(C(=O)N2CCc3ccccc32)cc1  -0.652%
53. COc1ccc(N2CCN(C(=O)CNC(=O)c3ccccc3Cl)CC2)cc1  -1.32%
54. COc1ccc(CNC(=O)CSc2ncnc3ccccc23)cc1OC  -1.39%
55. Clc1ccc(Oc2nc(N3CCOCC3)nc(N3CCOCC3)n2)cc1  -1.64%
56. Cc1nc(-c2ccc(Cl)cc2)sc1C(=O)NN  -1.69%
57. COc1cccc(N/C=C/C(=O)c2ccc(Cl)cc2)c1  -1.99%
58. CS(=O)(=O)NCc1ccc(C(=O)NCCOc2ccccc2)cc1  -2.18%
59. CN1CCC(=NNC(=O)C(=O)NCc2ccccc2)CC1  -2.22%
60. Cc1occc1C(=O)NCCc1cccc(Cl)c1  -2.27%
61. COC(=O)COc1ccc(S(=O)(=O)NCc2ccc3c(c2)OCO3)cc1C  -2.82%
62. CCOc1cc2ccccc2cc1C(=O)Nc1ccccn1  -3.68%
63. COc1ccc(Cc2nnc(NC(=O)c3cc(OC)c(OC)c(OC)c3)s2)cc1  -3.71%
64. CC(=O)Nn1c(COc2ccccc2C)nc2ccccc2c1=O  -4.17%
65. Cc1ccc(NC(=O)CSCC(=O)NC2CCCCC2)cc1  -7.04%
66. O=C(Nc1cnn(C23CC4CC(CC(C4)C2)C3)c1)c1cc(-c2ccccc2)on1  -9.54%
67. CCn1c(O)c(N=NC(=O)c2ccc(CSc3nncn3C)cc2)c2ccccc21  -10.2%
68. CCOc1ccc2ncc(S(=O)(=O)c3ccccc3)c(N3CCN(c4ccc(OC)cc4)CC3)c2c1  -10.9%
69. CN(C)C(/C=C/Nc1cccc([N+](=O)[O-])c1)=C(C#N)C#N  -11.1%
70. O=C(CNc1cc(S(=O)(=O)N2CCOCC2)ccc1NCC1CCCO1)Nc1cccc(F)c1 (stereo not shown)  -12%
71. CCOC(=O)C(C)Sc1nnc2n1C(C)(C)Cc1ccccc1-2 (stereo not shown)  -12.7%
72. CCCC1(c2ccccc2)NC(=O)N(CCN2C(=O)c3ccccc3C2=O)C1=O (stereo not shown)  -13.9%
73. COc1ccc(-c2nc(CS(=O)CC(=O)NCc3ccc4c(c3)OCO4)c(C)o2)cc1OC (stereo not shown)  -14.3%
74. O=C(NCCC(=O)N(Cc1ccco1)Cc1cccs1)c1ccccc1Cl  -16.5%
75. COc1ccc(-c2cc(C(F)(F)F)n3ncc(C(=O)N(C)Cc4ccccc4)c3n2)cc1  -17%
76. COc1ccc(-n2cnnc2SCC(=O)Nc2cccc(S(=O)(=O)N3CCCCC3)c2)cc1  -18.5%
77. C=CCn1c(SC)nnc1C1COc2ccccc2O1 (stereo not shown)  -19%
78. Cc1ccc(C)c(S(=O)(=O)N2CCN(CC(=O)NC(=O)NCc3ccco3)CC2)c1  -24.5%
79. Cc1ccccc1OCC(=O)Nc1ccc(Cc2ccncc2)cc1  -25%
80. COc1cc(OC)c(C(=O)Nc2ccccc2-c2ccccc2)cc1OC  -25.6%
81. C/C(=N\N(Cc1ccccc1)c1ccccc1)c1cccnc1  -25.6%
82. O=c1c2ccccc2nc2c3ccccc3cnn12  -26.1%
83. CCOC(=O)c1ccc2c(c1)C1C=CCC1C(C(=O)OCC)N2 (stereo not shown)  -33.7%
84. O=C(CSc1ncnc2scc(-c3ccccc3)c12)N1CCN(Cc2ccc3c(c2)OCO3)CC1  -35.7%
85. CC(NC(=O)CCC(=O)N1CCN(S(=O)(=O)c2ccc(Cl)cc2)CC1)c1ccccc1 (stereo not shown)  -38.1%
86. CCOC(=O)C1CCN(C(=O)CCc2c(C)nc3cc(-c4ccc(OC)cc4OC)nn3c2C)CC1  -70.7%
87. CC(C)(c1ccccc1)c1ccc(OCC(O)CNC2CCN(Cc3ccccc3)CC2)cc1.O=C(O)C(=O)O (stereo not shown)  -72.8%
88. O=C(NCc1ccccc1CN1CCCC1)c1cc2cc(Cl)ccc2o1  -74.6%
